The source of these data is paper doi:10.1101/2023.09.20.558662 (bioRxiv, 2023).

The target in this experiment is T1, KCTD5 (full-length, purified; SEC and cryo-EM samples) (human, UniProt Q9NXV2 1-234).
T1 sequence: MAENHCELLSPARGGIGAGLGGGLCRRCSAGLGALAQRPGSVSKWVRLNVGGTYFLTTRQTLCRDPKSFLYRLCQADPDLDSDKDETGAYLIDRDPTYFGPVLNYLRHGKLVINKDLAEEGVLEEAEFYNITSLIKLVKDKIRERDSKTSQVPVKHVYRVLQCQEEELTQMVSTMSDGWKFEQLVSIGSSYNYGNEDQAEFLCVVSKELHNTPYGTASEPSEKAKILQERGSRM
The experiment in a line: SEC. For orientation: Size exclusion chromatography separates by hydrodynamic size, large species first.

B1: CUL3 N-terminal domain (CUL3^NTD, […]) (domain or fragment)
chain: not shown
As usually defined, the stoichiometry N is a count of units in the complex or per binding partner. In the case of B1, the “stoichiometry N” value was determined as 1 molar ratio.
